Structures are written as SMILES. Among all 150,000 compounds or so, about 540 (0.36%) showed an effect of 50% or more. This is one part of the list.

The test concerns Plasmodium falciparum. Nature of the test: Primary screen in NF54 nanoGlo assay, in single point, at 2uM, 72h; a lower Z score goes with more inhibition. Type of test: functional, Erythrocyte. The conditions noted are these: timepoint 72 hour.
One may read the % Inhibition as the change of the read-out against control, counted positive when it falls. For `Cc1nc(Nc2ccc3[nH]ncc3c2)c2cc[nH]c2n1`, the “% Inhibition” value came to 9% and the Z score was -1.86.
Take `Cc1cccc2cc(C(=O)Nc3cccc(NC(=O)CN(C)C)c3)n(C)c12`: the “% Inhibition” value is 6% and the Z score was -1.22.
As to `CC1CCC(N(C)C(=O)CN2CCN(C3CCN(C(C)C)CC3)CC2)CC1` (centres undefined), the “% Inhibition” value was -1% and the Z score is listed as 0.15.
In the case of `c1ccc(-c2ccc(N3CCC(N4CC[C@H](n5ccnc5)C4)CC3)cc2)cc1`, the “% Inhibition” value is listed as -4% and the Z score came to 0.66.
The corresponding values for `Cc1nc(-c2ccc(O[C@H]3CCN(C(=O)c4[nH]nc5c4COc4ccccc4-5)C3)cc2)no1` are -9% and 1.74.
Consider `Cc1cc(-n2cncn2)ccc1C(=O)NC1CCN(C2CCN(C)CC2)CC1`, for which the “% Inhibition” value was -7% and the Z score is listed as 1.28.
Taken in the same sequence, the figures for `COc1cccc(Oc2ccc(NC(=O)[C@@H]3NCCc4[nH]cnc43)cn2)c1` were -6% and 1.22.
As for `CC(=O)NCCNc1ncc(-c2ccoc2)c(-c2ccc(C)cc2)n1`, the “% Inhibition” value is given as -8% and the Z score is on record as 1.38.
The corresponding values for `CN(Cc1ccc(OC[C@@H](O)CN2CCCCC2)cc1)Cc1nc2ccccc2o1` are -8% and 1.35.
`CN(C[C@@H]1C[C@H](F)CN1Cc1cnn(C)c1)C(=O)c1ccsn1`: the “% Inhibition” value is recorded as -7% and the Z score is reported as 1.1.
As to `CN(C[C@@H]1CCCN(C)[C@H]1c1cncn1C)c1ncnc2[nH]ccc12`, the “% Inhibition” value is listed as -10% and the Z score worked out at 1.47.
Regarding `CCc1cc(NCc2c(C)cc(CO)cc2C)nc(C)n1`, the “% Inhibition” value was -5% and the Z score is recorded as 1.12.
For `Nc1ccc(Oc2ccccc2-c2ccccc2)cc1`, the “% Inhibition” value came to 10% and the Z score was -1.94.
In the case of `CS(=O)(=O)N(Cc1csc(C2CCCCC2)n1)c1ccccc1F`, the “% Inhibition” value was -2% and the Z score was 0.23.
Consider `CCN1CCC[C@H](CNCc2cn(-c3ccccc3)nc2C(C)C)C1`, for which the “% Inhibition” value is 38% and the Z score was -7.61.
With `CC1(C)Oc2ccsc2[C@H](NCc2ccc(C#N)cc2)[C@H]1O`, the “% Inhibition” value is given as -11% and the Z score was 2.25.
As to `CO[C@H]1C[C@@H](CN2CCCC2)N(c2cc(NCc3nnc[nH]3)ncn2)C1`, the “% Inhibition” value is given as -3% and the Z score is 0.66.
In the case of `CC(C)N1CCN(CCCN2CCN3CCC2C3)CC1` (centres undefined), the “% Inhibition” value is given as -6% and the Z score stood at 0.85.
Take `O=C(c1coc2cc(F)ccc12)N1CCN2CCCC2C1` (centres undefined): the “% Inhibition” value is -1% and the Z score is 0.12.
For `CN(Cc1cccc(Oc2cccc(C(F)(F)F)c2)c1)[C@H]1C[C@H]2C[C@@H](O)C[C@H]2C1`, the “% Inhibition” value is reported as -9% and the Z score is listed as 1.37.
For `Cc1cccc(Cn2cc(CCn3cncn3)nn2)c1Br`, the “% Inhibition” value is given as -5% and the Z score is recorded as 1.17.
Consider `c1ccc([C@@H]2CN(c3nccc(-c4cccnc4)n3)CCN2)cc1`, for which the “% Inhibition” value is 3% and the Z score was -0.62.
Consider `CN(C(=O)[C@H]1CC(=O)N(c2ccccc2Br)C1)C1CCN(CCc2ccncc2)CC1`, for which the “% Inhibition” value is 0% and the Z score is recorded as -0.02.
As to `CCCN(CCC)C(=O)c1cccc(Nc2ncc(-c3cccc(C)c3)cn2)c1`, the “% Inhibition” value was -7% and the Z score is on record as 1.25.
Turning to `C1=CC[C@@H](CN2CCOc3ccc(CN4CCC(Oc5cccnc5)CC4)cc3C2)CC1`, the “% Inhibition” value is -14% and the Z score is 2.51.
For the compound `CC(O)CN1CCC(CN(C)CC2CCN(C(=O)OC(C)(C)C)C2)CC1` (centres undefined), the “% Inhibition” value was -1% and the Z score is recorded as 0.13.
On to `NC1CCCCCC1NCCCN1CCNCC1` (centres undefined), for which the “% Inhibition” value worked out at 3% and the Z score is given as -0.66.
As to `O=C(CCc1nnc(-c2ccc(-c3ccccc3)cc2)o1)NC[C@@H]1CCCN2CCCC[C@H]12`, the “% Inhibition” value amounted to 29% and the Z score is -4.93.
Regarding `CCNc1nc(NCc2ccccc2)c2cn[nH]c2n1`, the “% Inhibition” value is on record as -6% and the Z score is 1.21.
Regarding `COc1cc2nc(N3CCN(C)[C@H](c4ncc[nH]4)C3)nc(N)c2cc1OC`, the “% Inhibition” value came to 3% and the Z score was -0.58.
In the case of `CC(C)(C)OC1CN(C(=O)c2nc(C(F)(F)F)n3ccccc23)C1`, the “% Inhibition” value was -1% and the Z score was 0.23.
As for `CCc1n[nH]c(=O)c(-c2nc(-c3c[nH]c4ncccc34)cs2)c1CC`, the “% Inhibition” value was 10% and the Z score is given as -1.73.
Take `C[C@H](O)CN(C)C1CCN(C(=O)c2ncnc3[nH]ccc23)CC1`: the “% Inhibition” value is reported as 2% and the Z score is given as -0.28.
With `CC(C)c1nc(NC2CCN(Cc3ccccn3)CC2)c2cnn(C)c2n1`, the “% Inhibition” value is reported as -3% and the Z score came out at 0.63.
Consider `Cc1cccc(NC[C@H]2CCN(Cc3cnn4ccccc34)C2)n1`, for which the “% Inhibition” value was -12% and the Z score stood at 2.04.
In the case of `CC(C)N(C(=O)c1ccc2ccccc2n1)c1ccc(Nc2ccccc2)cc1`, the “% Inhibition” value came to 5% and the Z score is -0.86.
Regarding `Cn1ncc2c(N)nc(NCCCOc3cccc4cccnc34)nc21`, the “% Inhibition” value is on record as -9% and the Z score worked out at 1.61.
Take `F[C@H]1C[C@@H](CNc2ccc3ccccc3n2)N(Cc2cncnc2)C1`: the “% Inhibition” value amounted to 12% and the Z score is on record as -1.86.
The corresponding values for `Cc1cccc(OCC(=O)NCC2CCN(Cc3nccn3C3CC3)CC2)c1C` are -6% and 1.29.
Taken in the same sequence, the figures for `CCCNC(=O)CCc1ccc2[nH]c(-c3ccccc3)nc2c1` were -5% and 0.86.
On to `COc1cc([C@H](C)NC2CCN(c3ccc(Cl)cc3)CC2)ccn1`, for which the “% Inhibition” value was 2% and the Z score is listed as -0.37.
As to `CN1C[C@H](CN2CCC(c3nccc(-c4cncnc4)n3)CC2)OC1=O`, the “% Inhibition” value was -8% and the Z score turned out to be 1.69.

The values are drawn from ChEMBL document CHEMBL5308541, “MAIP: An Open-Source Tool to Enrich High-Throughput Screening Output and Identify Novel, Druglike Molecules with Antimalarial Activity” (ACS Med Chem Lett, 2023).
